Results as given in PubChem BioAssay AID1508642 (National Center for Advancing Translational Sciences (NCATS), 2021).
About 200 (0.47%) of roughly 43,000 compounds were called active. Inconclusive results (about 12%) are left out. Calls come from the whole dose curve; as a rule, active = well fitted cell-killing curve with a large enough effect; inconclusive = small, poorly fitted or top-dose-only effect, or effect the other way; inactive = flat fitted curve, though single readings scatter. The list shows a part of the results.

Assay: Cell viability qHTS assay in S16 Pmp22-F2sN cells; note: nearly all actives have a fitted effect of over 65% in size
Settings: S16 Pmp22-F2sN Schwann cells (luciferase reporters placed in the Pmp22 gene) viability, CellTiter-Glo, 24 h; series mostly up to 57.5 µM; activity change, negative = cytotoxicity: at the top concentration
Procedure, shortened: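 CellTiter-Glo counter-screen, qHTS, 1536-well. Cells: S16(c9) Pmp22-F2sN, 500-1,000/well in DMEM + 10% FBS. Cpd 23 nL pin transfer, 24 h, 37C/5% CO2. Read: luminescence, CCD imager.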
% is set by controls: 0 for no effect and ±100 for the full control effect.

Structure (SMILES)	activity change, negative = cytotoxicity
CCOc1ccc(CN2CCc3nc(Nc4ccc(OC)cc4OC)ncc3C2)cc1	inactive: -1.59%
O=C(NCCCN1CCN(c2ccc(F)cc2)CC1)c1ccc2nc(Cc3ccccc3)oc2c1	inactive: -9.89%
CCSC1=NC2(CCN(C(=O)NC3CCCCC3)CC2)N=C1c1ccc(Cl)cc1	inactive: 0.222%
COc1ccc2c(c1)c1c(c(=O)n(CCc3ccccc3)c(=O)n1Cc1ccc(F)cc1)n2C	inactive: -2.65%
CCN(CC)CCCNC(=O)c1nn(C)c2c1CS(=O)(=O)c1ccccc1-2	inactive: 3.82%
Cc1ccccc1Cn1c(CN2CCC(C(=O)NCCc3ccccc3)CC2)cc2ccccc21	inactive: -4.81%
CCC(=O)Nc1cccc(C(=O)OCc2cc(=O)n3nc(CC)sc3n2)c1	inactive: 1.15%
COc1ccc2c(c1)c1c(c(=O)n(-c3ccc(F)c(Cl)c3)c(=O)n1Cc1ccccc1C)n2C	inactive: 18.3%
Cc1ccc2sc(NC(=O)c3ccc4c(c3)OCCO4)nc2c1C	inactive: -3.21%
COc1ccc(NC(=O)c2c(-c3ccc(C)cc3)nnc3ccccc23)c(OC)c1	inactive: 3.45%
CCN(CC)c1nc2ccccc2nc1C(=O)Nc1cccc(C(C)=O)c1	inactive: -15.6%
CCOC(=O)c1c(S(=O)(=O)N2CCCC(C(=O)Nc3cccc(C)n3)C2)c(C)n(C)c1C (stereo unspecified)	inactive: 6.28%
CCOc1ccc(C2CC(=O)Nc3c2c(=O)nc(SCc2ccccc2C)n3C)cc1OC (stereo unspecified)	inactive: 2.15%
CCn1cc(C(=O)OCC(=O)Nc2cccc(C(C)=O)c2)c(=O)c2ccc(C)nc21	inactive: 6.37%
COc1ccc(Cn2c(=O)c3oc4ccccc4c3n(Cc3ccc(Cl)cc3)c2=O)cc1	inactive: 5.98%
CCCCCNC(=O)CCCCCn1c(=O)[nH]c2ccsc2c1=O	inactive: 13.9%
COc1ccc(CNC(=O)C2CCN(c3nc4ccccc4[nH]3)CC2)cc1OC	inactive: 1.97%
Cc1ccc(NC(=O)CSc2nnc3scc(-c4ccccc4)n23)cc1	inactive: 1.18%
O=C(Cn1nnc(-c2ccccc2Cl)n1)Nc1ccc(Br)cc1	inactive: 19%
COC(=O)c1ccc(OCC2c3cc(OC)c(OC)cc3CCN2C(=O)c2ccc(F)cc2)cc1 (stereo unspecified)	inactive: -0.795%
CCOC(=O)c1c(C)[nH]c(C)c1S(=O)(=O)N1CCCC(C(=O)N2CCN(c3ccccc3)CC2)C1 (stereo unspecified)	inactive: -0.734%
CCOCCc1nn2c(=O)cc(COC(=O)C3CCCCC3)nc2s1	inactive: 1.19%
Cc1cccn2c(=O)c3cc(C(=O)NC(C)c4ccccc4)c(=N)n(CCCO)c3nc12 (stereo unspecified)	inactive: -14.8%
O=c1oc2c(CN3CCN(CCO)CC3)c(O)ccc2cc1-c1ccccc1	inactive: -2.52%

Structure (SMILES)	activity change, negative = cytotoxicity
COc1ccc(Cn2ccc3nc(C)c(C(=O)NCc4ccc(F)cc4)cc3c2=O)cc1	inactive: 1.33%
Cc1ccc2c(=O)cc(C(=O)Nc3sc4c(c3C(=O)NCc3cccnc3)CCCC4)oc2c1C	inactive: -2.49%
Fc1ccc(-c2noc3ncnc(NCCCN4CCN(c5ccccc5)CC4)c23)cc1	inactive: -27.3%
CCc1cc(C(=O)Nc2cnn(Cc3ccccc3C)c2)no1	inactive: -0.218%
COc1ccc(S(=O)(=O)NCC(c2ccco2)N2CCOCC2)cc1OC (stereo unspecified)	inactive: 14.9%
COc1cccc(NC(=O)CC2NCCNC2=O)c1 (stereo unspecified)	inactive: 16.5%
COc1ccc(C(=O)NCC(c2ccc(N(C)C)cc2)N2CCc3ccccc32)c(OC)c1 (stereo unspecified)	inactive: 6.53%
COc1ccc(Cn2c(=O)c3oc4ccccc4c3n(CC(=O)Nc3ccc(F)cc3F)c2=O)cc1	inactive: 0.782%
O=C(NCCc1ccccc1Cl)c1ccc2c(c1)nc1n2CCCCC1	inactive: -2.01%
CCN(CC)c1ccc(-c2nc(-c3ccccc3C)no2)cc1[N+](=O)[O-]	inactive: 23.3%
Cc1ccc(Nc2nc(C)nc(N)c2S(=O)(=O)c2ccccc2)cc1	inactive: -5.55%
CC1=C(C(=O)Nc2ccccc2)C(c2cccn2C)n2ncnc2N1 (stereo unspecified)	inactive: 11.9%
Cc1ccc(C)c(Cn2c(C3CC(=O)N(c4ccccc4C)C3)nc3ccccc32)c1 (stereo unspecified)	inactive: 3.22%
Cc1ccc(CNC(=O)CSc2n[nH]c(-c3ccc(F)cc3)n2)cc1	inactive: -0.0153%
O=S(=O)(c1ccc2nc(N3CCN(c4cccc(Cl)c4)CC3)ccc2c1)N1CCCCC1	inactive: 8.72%
Cc1ccc(Cl)cc1N1CCN(Cc2nnc(-c3ccc4c(c3)OCO4)o2)CC1	inactive: -11.5%
Cc1cc(NC(=O)C2CCN(S(=O)(=O)c3ccc(Br)s3)CC2)ccc1Br	inactive: 7.7%
Cc1ccc(NC(=O)CN2C(=O)CCSc3ccc(S(=O)(=O)N4CCCC4)cc32)cc1C	inactive: 1.88%
Cc1ccc(C)c(OC(=O)CSc2nnc(CNC(=O)c3ccccc3)o2)c1	inactive: 7.2%
CC1=C(c2ccc(C)cc2)S(=O)(=O)NC1=NCCCN1CCN(c2ccc(F)cc2)CC1	inactive: -5.11%
CC(=O)N1CCc2c(sc3nc(SCC(C)C)n(-c4ccc(F)c(Cl)c4)c(=O)c23)C1	inactive: 3.8%
CCCSc1ncc(Cl)c(C(=O)Nc2c(C(=O)Nc3ccc(C)cc3)oc3ccccc23)n1	inactive: -2.47%
COC(=O)c1ccc(C2C(C(=O)Nc3ccccc3)=C(C)Nc3nc4ccccc4n32)cc1 (stereo unspecified)	inactive: 0.0463%
CCc1nc(Oc2cccc(F)c2)c2oc3ccccc3c2n1	inactive: 3.15%

Structure (SMILES)	activity change, negative = cytotoxicity
Cc1cc2oc(C(=O)Nc3ccc(S(=O)(=O)N4CCCCCC4)cc3)cc(=O)c2cc1C	inactive: -0.281%
CCN(CC)c1ccc(NS(=O)(=O)c2cc3[nH]c(=O)c(=O)[nH]c3cc2C)c(C)c1	inactive: 14.3%
CCN(CC)c1ccc(NC(=O)CSc2nc(-c3cccs3)cc(C(F)(F)F)n2)cc1	inactive: -0.273%
Cc1ccc(NC(=O)Nc2nnc(N(C)Cc3ccccc3)s2)c(C)c1	inactive: -17.7%
CC(C)CCNC(=O)CN1N=C(c2ccc(Cl)cc2)CCC1=O	inactive: -1.04%
COc1ccc(CN2C(=O)c3ccccc3C2C(=O)NCCc2ccccc2)c(OC)c1 (stereo unspecified)	inactive: 2.8%
CC1=C(C(=O)Nc2ccc(C)cc2C)C(c2cccs2)n2nc(SCc3ccccc3Cl)nc2N1 (stereo unspecified)	inactive: 8.2%
COc1cccc(N2CCN(C(=O)Cn3c(-c4cccs4)cc4ccccc43)CC2)c1	inactive: 3.55%
O=C(Nc1cccc(C(F)(F)F)c1)c1cc2ccc3cccnc3c2[nH]1	inactive: 0.731%
Cc1ccc(-c2nc(C)c(CCNS(=O)(=O)c3ccc(F)c(C(F)(F)F)c3)s2)cc1	inactive: 6.46%
CCn1cc(C(=O)N2CCN(c3ccccc3F)CC2)c(=O)c2cc(S(=O)(=O)N(C)C)ccc21	inactive: 2.05%
O=c1cc(-c2ccccc2)n2c(SCc3ccc(F)cc3)nnc2[nH]1	inactive: -2.23%
CCOC(=O)c1c(C)[nH]c(CCC(=O)NCc2ccc(N(C)C)cc2)c1C	inactive: 11.8%
CCN(Cc1ccccc1)C(=O)Cn1c(=O)n(-c2ccc(C)c(C)c2)c(=O)c2c(C)c(C)sc21	inactive: -18.3%
O=c1oc2ccccc2cc1-c1cn2cc(Cc3ccc(Cl)cc3)sc2n1	inactive: -2.04%
Cc1cccc(-c2nc3c4ccccc4nc(N4CCN(c5cc(C)ccc5C)CC4)n3n2)c1	inactive: 2.04%
COc1cccc(C(=O)Nc2cccc(-c3cn4c(C)csc4n3)c2)c1OC	inactive: 18.1%
O=C(Nc1cccc(Cl)c1)c1cc2c(=O)[nH]c3ccccc3c2s1	inactive: -12.8%
Cc1cccc(N2CCN(C(=O)CCn3c(=O)c4cccn4c4cccnc43)CC2C)c1 (stereo unspecified)	inactive: -13.4%
Cc1nnc(N2CCCC(C(=O)NCCc3ccc(Cl)cc3)C2)c2nn(-c3ccccc3)c(C)c12 (stereo unspecified)	inactive: -7.67%
O=C(Nc1ccc(-c2cn3cccnc3n2)cc1)c1cc(Br)ccc1Cl	inactive: 12.6%
CCc1ccccc1NC(=O)c1cnc2sc(N3CCCC3)nn2c1=O	inactive: -3.46%
CCOc1ccc(-c2nn(CC(=O)NC3CCCC3)c3c2cnc2ccc(F)cc23)cc1	inactive: 23.3%
Cc1nc(-c2cccnc2)sc1CCNS(=O)(=O)c1ccc(F)cc1	inactive: -6%

Structure (SMILES)	activity change, negative = cytotoxicity
COCCNC(=O)c1cccc(-n2c(C)nc3cccnc32)c1	inactive: -1.06%
COc1ccc2c(CNCCc3ccco3)c(C(=O)O)n(Cc3ccccc3)c2c1	inactive: 15.1%
COc1ccc(NC(=O)CSc2nc3ccccc3n2Cc2cccc(OC)c2)cc1	inactive: -0.336%
CCOc1ccc(NC(=O)C2CCN(c3nnc(-n4c(C)ccc4C)s3)CC2)cc1	inactive: -2.82%
COc1cc(OC)cc(-n2c(=O)c3sccc3n(Cc3c(C)cc(C)cc3C)c2=O)c1	inactive: 0.924%
Cc1ccc(NC(=O)c2cc(S(=O)(=O)N3CCc4ccccc43)ccc2F)cc1Cl	inactive: 12.4%
COc1ccc(-c2cc(C(F)(F)F)nc(SCC(=O)NCCc3ccccc3)n2)cc1OC	inactive: -18.3%
CCc1sc(Nc2cccc(C)c2C)nc1-c1cc2cccc(OC)c2oc1=O	inactive: 28.2%
CN1C(=O)Cc2cc(S(=O)(=O)CCC(=O)Nc3ccc(F)c(Cl)c3)ccc21	inactive: -29.9%
O=C(Nc1cc(F)ccc1F)N1CCC(CN2CCCC2)CC1	inactive: 14.7%
Cc1ccc2c(=O)c(C(=O)c3cccc(Cl)c3)cn(CC(=O)Nc3ccc4c(c3)OCCO4)c2n1	inactive: -5.03%
Cn1cc(S(=O)(=O)c2cccc(Cl)c2)c(=O)c2cc(F)c(N3CCN(c4ccccc4)CC3)cc21	inactive: 4%
O=C(CSc1nnc(NC(=O)Nc2ccccc2)s1)Nc1cccc(F)c1	inactive: 7.03%
COc1ccc(CCCc2nnc(SCC(=O)Nc3ccc(OC)cc3)o2)cc1	inactive: 2.59%
COc1cc(C2c3c(-c4cc(C)ccc4O)n[nH]c3C(=O)N2CCCO)ccc1OCCC(C)C (stereo unspecified)	inactive: 9.36%
CCc1ccccc1Nc1cc(C(=O)NC(C)c2ccccc2)c2ccccc2n1 (stereo unspecified)	inactive: -23.6%
CCCc1nn2c(=O)cc(COC(=O)c3ccccc3NC(=O)c3ccc(Cl)cc3)nc2s1	inactive: -4.65%
CCOC(=O)c1ccccc1NC(=O)N1CCC(CN2CCCCC2)CC1	inactive: 3.71%
CCOc1ccc(NC(=O)CN2CCCN(Cc3cc(C)ccc3C)S2(=O)=O)cc1	inactive: 2.19%
Cc1ccc(NC(=O)C(C)Sc2nc(=O)cc(N)n2-c2ccccc2)cc1 (stereo unspecified)	inactive: -18.2%
CCCC(=O)Nc1ccc(-c2nc3ncccc3o2)cc1C	inactive: -3.54%
CCOC(=O)c1cccc(NC(=O)CCn2nc(C)c(S(=O)(=O)N3CCCCC3)c2C)c1	inactive: -20.8%
Cc1ccc(C)c(NC(=O)c2cc(S(=O)(=O)N3CCCCCC3)ccc2F)c1	inactive: 7.45%
CC1=C(C(=O)Nc2ccccc2)C(c2cccs2)n2nc(SCc3ccccc3F)nc2N1 (stereo unspecified)	inactive: -0.881%
